Numbering of substitutions follows the chain as printed; changes in the protein carry UniProt numbers. The list shows a part of the results.
T1: RBFOX1 RRM (Homo sapiens, UniProt Q9NWB1 109-208)
T1 sequence: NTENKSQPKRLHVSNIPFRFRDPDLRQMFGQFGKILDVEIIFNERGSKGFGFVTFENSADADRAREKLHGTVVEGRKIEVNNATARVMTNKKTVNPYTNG

B1: UUCCCAG (DNA:RNA)
RNA: GGGAGACCGGAAUUCAGAUUGUCCUUCCCAGUUAAAUCCCGUCGUAGCCACCA
DNA 1: CAATCTGAATTCCGGTCTCCC
DNA 2: TGGTGGCTACGACGGGATT
B2: GGUAGGA (DNA:RNA)
RNA: GGGAGACCGGAAUUCAGAUUGUCCGGUAGGAUUAAAUCCCGUCGUAGCCACCA
DNA 1: CAATCTGAATTCCGGTCTCCC
DNA 2: TGGTGGCTACGACGGGATT
B3: AAGUUAG (DNA:RNA)
RNA: B1 RNA with U25A, U26A, C27G, C28U, C29U
DNA 1: CAATCTGAATTCCGGTCTCCC
DNA 2: TGGTGGCTACGACGGGATT
B4: GAUUACC (DNA:RNA)
RNA: B2 RNA with G26A, A28U, G29A, G30C, A31C
DNA 1: CAATCTGAATTCCGGTCTCCC
DNA 2: TGGTGGCTACGACGGGATT
B5: CUCAUUA (DNA:RNA)
RNA: B2 RNA with G25C, G26U, U27C, G29U, G30U
DNA 1: CAATCTGAATTCCGGTCTCCC
DNA 2: TGGTGGCTACGACGGGATT
B6: CCCGCCG (DNA:RNA)
RNA: B1 RNA with U25C, U26C, C28G, A30C
DNA 1: CAATCTGAATTCCGGTCTCCC
DNA 2: TGGTGGCTACGACGGGATT
B7: CGCAGUG (DNA:RNA)
RNA: B2 RNA with G25C, U27C, G30U, A31G
DNA 1: CAATCTGAATTCCGGTCTCCC
DNA 2: TGGTGGCTACGACGGGATT
B8: AUAAUAC (DNA:RNA)
RNA: B1 RNA with U25A, C27A, C28A, C29U, G31C
DNA 1: CAATCTGAATTCCGGTCTCCC
DNA 2: TGGTGGCTACGACGGGATT
B9: CCACAUA (DNA:RNA)
RNA: B2 RNA with G25C, G26C, U27A, A28C, G29A, G30U
DNA 1: CAATCTGAATTCCGGTCTCCC
DNA 2: TGGTGGCTACGACGGGATT
B10: GGCCGGA (DNA:RNA)
RNA: B2 RNA with U27C, A28C
DNA 1: CAATCTGAATTCCGGTCTCCC
DNA 2: TGGTGGCTACGACGGGATT
B11: AUCAUCA (DNA:RNA)
RNA: B2 RNA with G25A, G26U, U27C, G29U, G30C
DNA 1: CAATCTGAATTCCGGTCTCCC
DNA 2: TGGTGGCTACGACGGGATT
B12: AGAACCA (DNA:RNA)
RNA: B2 RNA with G25A, U27A, G29C, G30C
DNA 1: CAATCTGAATTCCGGTCTCCC
DNA 2: TGGTGGCTACGACGGGATT
B13: AGUCUAC (DNA:RNA)
RNA: B2 RNA with G25A, A28C, G29U, G30A, A31C
DNA 1: CAATCTGAATTCCGGTCTCCC
DNA 2: TGGTGGCTACGACGGGATT
B14: CCUACGC (DNA:RNA)
RNA: B2 RNA with G25C, G26C, G29C, A31C
DNA 1: CAATCTGAATTCCGGTCTCCC
DNA 2: TGGTGGCTACGACGGGATT
B15: GUCGACG (DNA:RNA)
RNA: B1 RNA with U25G, C28G, C29A, A30C
DNA 1: CAATCTGAATTCCGGTCTCCC
DNA 2: TGGTGGCTACGACGGGATT
B16: CUUAUUU (DNA:RNA)
RNA: B2 RNA with G25C, G26U, G29U, G30U, A31U
DNA 1: CAATCTGAATTCCGGTCTCCC
DNA 2: TGGTGGCTACGACGGGATT
B17: CGGGCAA (DNA:RNA)
RNA: B2 RNA with G25C, U27G, A28G, G29C, G30A
DNA 1: CAATCTGAATTCCGGTCTCCC
DNA 2: TGGTGGCTACGACGGGATT
B18: AUUCUAU (DNA:RNA)
RNA: B1 RNA with U25A, C27U, C29U, G31U
DNA 1: CAATCTGAATTCCGGTCTCCC
DNA 2: TGGTGGCTACGACGGGATT
B19: AUAUGUA (DNA:RNA)
RNA: B2 RNA with G25A, G26U, U27A, A28U, G30U
DNA 1: CAATCTGAATTCCGGTCTCCC
DNA 2: TGGTGGCTACGACGGGATT
B20: GGAGGGU (DNA:RNA)
RNA: B2 RNA with U27A, A28G, A31U
DNA 1: CAATCTGAATTCCGGTCTCCC
DNA 2: TGGTGGCTACGACGGGATT
B21: CAGUCCG (DNA:RNA)
RNA: B1 RNA with U25C, U26A, C27G, C28U, A30C
DNA 1: CAATCTGAATTCCGGTCTCCC
DNA 2: TGGTGGCTACGACGGGATT
B22: CACGCGG (DNA:RNA)
RNA: B1 RNA with U25C, U26A, C28G, A30G
DNA 1: CAATCTGAATTCCGGTCTCCC
DNA 2: TGGTGGCTACGACGGGATT
B23: UCGAAGA (DNA:RNA)
RNA: B2 RNA with G25U, G26C, U27G, G29A
DNA 1: CAATCTGAATTCCGGTCTCCC
DNA 2: TGGTGGCTACGACGGGATT
B24: GACGUUU (DNA:RNA)
RNA: B2 RNA with G26A, U27C, A28G, G29U, G30U, A31U
DNA 1: CAATCTGAATTCCGGTCTCCC
DNA 2: TGGTGGCTACGACGGGATT
B25: CUGUAGC (DNA:RNA)
RNA: B2 RNA with G25C, G26U, U27G, A28U, G29A, A31C
DNA 1: CAATCTGAATTCCGGTCTCCC
DNA 2: TGGTGGCTACGACGGGATT
B26: CAUCUUA (DNA:RNA)
RNA: B2 RNA with G25C, G26A, A28C, G29U, G30U
DNA 1: CAATCTGAATTCCGGTCTCCC
DNA 2: TGGTGGCTACGACGGGATT
B27: GUGAGAU (DNA:RNA)
RNA: B2 RNA with G26U, U27G, G30A, A31U
DNA 1: CAATCTGAATTCCGGTCTCCC
DNA 2: TGGTGGCTACGACGGGATT
B28: CCUGAGA (DNA:RNA)
RNA: B2 RNA with G25C, G26C, A28G, G29A
DNA 1: CAATCTGAATTCCGGTCTCCC
DNA 2: TGGTGGCTACGACGGGATT
B29: UUAAACC (DNA:RNA)
RNA: B1 RNA with C27A, C28A, C29A, A30C, G31C
DNA 1: CAATCTGAATTCCGGTCTCCC
DNA 2: TGGTGGCTACGACGGGATT
B30: GCGCUCC (DNA:RNA)
RNA: B2 RNA with G26C, U27G, A28C, G29U, G30C, A31C
DNA 1: CAATCTGAATTCCGGTCTCCC
DNA 2: TGGTGGCTACGACGGGATT
B31: UGUCUCU (DNA:RNA)
RNA: B2 RNA with G25U, A28C, G29U, G30C, A31U
DNA 1: CAATCTGAATTCCGGTCTCCC
DNA 2: TGGTGGCTACGACGGGATT

These binders were tested against T1, RBFOX1 RRM (assay: EMSA; HiTS-Eq, 1 nM pool, 10 min; buffer printed only for the single-RNA assays: 10 mM Tris pH 7.5, 150 mM NaCl, 3.4 mM EDTA, 0.001% NP-40, 30 C). Conditions: tags: His6 N-terminal (pET28a); label: 5' 32P.
Summary of the method: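 A pool of RNA with 7 randomized nucleotides, 5′-radiolabelled and with DNA-annealed flanks, was equilibrated at 1 nM for 10 min in 50 µL with purified RbFox RRM, wild type or mutant, across increasing protein concentrations. Free RNA was separated by 8% native PAGE, excised, reverse-transcribed, barcoded by PCR and sequenced. Relative association constants were obtained from read-count changes of each RNA species versus the control reaction and normalised to the cognate motif.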

Binder | binding signal
B1 | 0.00757 KA relative to UGCAUGU
B2 | 0.00184 KA relative to UGCAUGU
B3 | 0.0116 KA relative to UGCAUGU
B4 | 0.00633 KA relative to UGCAUGU
B5 | 0.000718 KA relative to UGCAUGU
B6 | 0.0132 KA relative to UGCAUGU
B7 | 0.0177 KA relative to UGCAUGU
B8 | 0.00118 KA relative to UGCAUGU
B9 | 0.000851 KA relative to UGCAUGU
B10 | 0.0111 KA relative to UGCAUGU
B11 | 0.00109 KA relative to UGCAUGU
B12 | 0.00358 KA relative to UGCAUGU
B13 | 0.00347 KA relative to UGCAUGU
B14 | 0.00459 KA relative to UGCAUGU
B15 | 0.0133 KA relative to UGCAUGU
B16 | 0.00591 KA relative to UGCAUGU

Binder | binding signal
B17 | 0.0227 KA relative to UGCAUGU
B18 | 0.00167 KA relative to UGCAUGU
B19 | 0.00513 KA relative to UGCAUGU
B20 | 0.0168 KA relative to UGCAUGU
B21 | 0.00831 KA relative to UGCAUGU
B22 | 0.00376 KA relative to UGCAUGU
B23 | 0.00871 KA relative to UGCAUGU
B24 | 0.0167 KA relative to UGCAUGU
B25 | 0.0127 KA relative to UGCAUGU
B26 | 0.00114 KA relative to UGCAUGU
B27 | 0.0157 KA relative to UGCAUGU
B28 | 0.0128 KA relative to UGCAUGU
B29 | 0.000916 KA relative to UGCAUGU
B30 | 0.00896 KA relative to UGCAUGU
B31 | 0.00998 KA relative to UGCAUGU

— publication PMC9911399, “Two distinct binding modes provide the RNA-binding protein RbFox with extraordinary sequence specificity”
